{"source": "paper PMC4336329", "about": "(PLoS ONE, 2015)", "note": "Screen size: about 310,000 compounds; about 2,200 (0.71%) showed an effect of 50% or more. Effects have a minus sign here. The list shows a part of the results.", "data": [{"target": "human ether-à-go-go-related gene (hERG) potassium channel (human, UniProt Q12809)", "sequence (Q12809 whole entry, looked up)": "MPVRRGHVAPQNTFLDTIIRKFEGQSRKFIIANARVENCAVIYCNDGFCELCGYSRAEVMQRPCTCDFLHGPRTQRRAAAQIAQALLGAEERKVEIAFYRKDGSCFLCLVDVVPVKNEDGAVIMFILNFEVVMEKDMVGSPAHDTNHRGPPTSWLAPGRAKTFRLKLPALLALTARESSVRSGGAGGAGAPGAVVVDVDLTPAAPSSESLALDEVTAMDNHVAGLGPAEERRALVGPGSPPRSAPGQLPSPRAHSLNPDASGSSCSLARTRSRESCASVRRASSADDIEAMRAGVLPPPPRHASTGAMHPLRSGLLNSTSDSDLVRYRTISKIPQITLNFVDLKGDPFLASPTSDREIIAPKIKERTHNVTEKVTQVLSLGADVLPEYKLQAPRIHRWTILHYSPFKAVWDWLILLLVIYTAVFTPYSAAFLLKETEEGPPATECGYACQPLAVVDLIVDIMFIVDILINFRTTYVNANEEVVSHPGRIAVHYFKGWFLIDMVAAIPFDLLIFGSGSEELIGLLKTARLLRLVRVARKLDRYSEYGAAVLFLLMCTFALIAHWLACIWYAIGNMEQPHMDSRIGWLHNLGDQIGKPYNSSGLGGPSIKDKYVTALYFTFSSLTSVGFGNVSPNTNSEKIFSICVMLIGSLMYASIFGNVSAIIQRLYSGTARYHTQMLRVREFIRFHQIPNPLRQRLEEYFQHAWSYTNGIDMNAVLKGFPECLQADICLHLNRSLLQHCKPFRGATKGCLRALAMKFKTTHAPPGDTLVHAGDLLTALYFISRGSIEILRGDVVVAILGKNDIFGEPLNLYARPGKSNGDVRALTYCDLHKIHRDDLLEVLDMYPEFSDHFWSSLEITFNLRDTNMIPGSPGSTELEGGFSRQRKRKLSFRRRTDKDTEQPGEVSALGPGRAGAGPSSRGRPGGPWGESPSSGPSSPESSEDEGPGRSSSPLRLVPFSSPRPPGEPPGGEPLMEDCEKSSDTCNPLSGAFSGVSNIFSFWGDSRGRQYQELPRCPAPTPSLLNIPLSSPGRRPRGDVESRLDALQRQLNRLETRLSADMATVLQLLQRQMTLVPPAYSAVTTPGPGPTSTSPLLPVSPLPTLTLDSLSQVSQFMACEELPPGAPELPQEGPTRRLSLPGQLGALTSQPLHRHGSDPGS", "test": "primary screen, population patch clamp on CHO cells stably expressing hERG", "units": {"hERG current change (%, negative = inhibition) at 1uM": "%"}, "values": [{"compound": "C=CCSc1nc2[nH]ncc2c(=O)[nH]1", "hERG current change (%, negative = inhibition) at 1uM": 9.73}, {"compound": "COc1ccc(NC(=O)CN(C)CC(=O)Nc2sc3c(c2C#N)CCC3)cc1", "hERG current change (%, negative = inhibition) at 1uM": 10.6}, {"compound": "CN(C)C(=O)COC(=O)c1cccc(S(=O)(=O)Nc2ccc(OCc3ccccc3)cc2)c1", "hERG current change (%, negative = inhibition) at 1uM": 13.1}, {"compound": "N#Cc1c(NC(=O)/C=C/C(=O)O)sc2c1CCN(Cc1ccccc1)C2", "hERG current change (%, negative = inhibition) at 1uM": 9.47}, {"compound": "C=CCn1c(=S)[nH]c2cc(C(=O)Nc3ccc(OC)c(OC)c3)ccc2c1=O", "hERG current change (%, negative = inhibition) at 1uM": 11.7}, {"compound": "COc1ccc(-c2nn(-c3ccccc3)cc2/C=N/NC(=O)c2ccc(Br)o2)cc1", "hERG current change (%, negative = inhibition) at 1uM": 2.64}, {"compound": "CCCN(CCC)C(=O)CP(=O)(c1ccccc1)c1ccccc1", "hERG current change (%, negative = inhibition) at 1uM": -1.18}, {"compound": "Cc1ccc(S(=O)(=O)N2CCN(c3c([N+](=O)[O-])cc(C(F)(F)F)cc3[N+](=O)[O-])CC2)cc1", "hERG current change (%, negative = inhibition) at 1uM": 10.9}, {"compound": "COCCCN1C(=O)C(=O)/C(=C(/O)c2ccc(OC)cc2)C1c1ccc(O)c(OC)c1", "note": "(stereo not drawn)", "hERG current change (%, negative = inhibition) at 1uM": 6.46}, {"compound": "COc1ccc(Nc2cc(C)nc3ccc(OC)cc23)cc1", "hERG current change (%, negative = inhibition) at 1uM": -15.6}, {"compound": "CCNC(=O)NC1(C(=O)N2CCC(Cc3ccccc3)CC2)CCCCC1", "hERG current change (%, negative = inhibition) at 1uM": 12.8}, {"compound": "Cc1cccc(NC(=O)CSc2nnc(NC(=O)C3CCC3)s2)c1", "hERG current change (%, negative = inhibition) at 1uM": 12.5}, {"compound": "COC(=O)CC1C(=O)NCCN1C(=O)c1ccc(S(=O)(=O)N2CCOCC2)cc1", "note": "(stereo not drawn)", "hERG current change (%, negative = inhibition) at 1uM": 8.7}, {"compound": "Cc1ccc(NC(=O)Cn2c(CCC(=O)O)ccc2-c2cccs2)cc1Cl", "hERG current change (%, negative = inhibition) at 1uM": -35.4}, {"compound": "Cc1ccc(-c2ccc3c(c2)S(=O)(=O)c2ccccc2C3=O)cc1", "hERG current change (%, negative = inhibition) at 1uM": 10.6}, {"compound": "C=CCNC(=O)c1onc(CSc2cccc(C)c2)c1C(=O)O", "hERG current change (%, negative = inhibition) at 1uM": -15.8}, {"compound": "COCCNC(=O)/C(C#N)=C/c1cccc(OCc2ccccc2)c1", "hERG current change (%, negative = inhibition) at 1uM": 3.12}, {"compound": "CC(C(=O)NC1C=CS(=O)(=O)C1)N1C(=O)/C(=C/c2ccc(Cl)cc2)SC1=S", "note": "(stereo not drawn)", "hERG current change (%, negative = inhibition) at 1uM": 8.8}, {"compound": "COc1ccc(CCN(C)CC(O)COc2c(C)ccc(C)c2C)cc1OC", "note": "(stereo not drawn)", "hERG current change (%, negative = inhibition) at 1uM": -68.7}, {"compound": "O=S(=O)(Nc1ccc(-c2ccc3nncn3n2)cc1)c1cc(F)ccc1F", "hERG current change (%, negative = inhibition) at 1uM": 1.51}, {"compound": "Cc1ccc(-c2nn(C)c(=O)c3ccccc23)cc1CNS(C)(=O)=O", "hERG current change (%, negative = inhibition) at 1uM": 10.7}, {"compound": "COc1cc(O)oc1C=Nc1ccccc1", "hERG current change (%, negative = inhibition) at 1uM": -19.9}, {"compound": "CCCC1C2C(=O)N(c3cccc(C)c3)C(=O)C2ON1c1ccccc1", "note": "(stereo not drawn)", "hERG current change (%, negative = inhibition) at 1uM": 4.52}, {"compound": "CCOC(=O)c1nc(-c2ccccc2)sc1C(C)=O", "hERG current change (%, negative = inhibition) at 1uM": 17.7}, {"compound": "C=CCNc1ccc(F)c(F)c1N1CCCCCC1=O", "hERG current change (%, negative = inhibition) at 1uM": 5.99}, {"compound": "Cc1ccc(Cl)c(OCC(O)CN(CCO)CCO)c1", "note": "(stereo not drawn)", "hERG current change (%, negative = inhibition) at 1uM": 10.3}, {"compound": "CCc1nc2ccc(C(=O)Nc3cccc(C(C)=O)c3)cc2nc1CC", "hERG current change (%, negative = inhibition) at 1uM": 4.59}, {"compound": "c1ccc(C2CC(c3ccccc3)C(c3ccccc3)N2)cc1", "note": "(stereo not drawn)", "hERG current change (%, negative = inhibition) at 1uM": 10.5}, {"compound": "CC1CCCN(c2nc3nonc3nc2Nc2ccccc2F)C1", "note": "(stereo not drawn)", "hERG current change (%, negative = inhibition) at 1uM": 19.2}, {"compound": "Cc1cc(OCC(=O)OCC(=O)N(C)c2c(N)n(Cc3ccccc3)c(=O)[nH]c2=O)ccc1Cl", "hERG current change (%, negative = inhibition) at 1uM": 5.96}, {"compound": "CC(C)(C)n1ncc2c(=O)n(Cc3cccc(Cl)c3)cnc21", "hERG current change (%, negative = inhibition) at 1uM": -10.1}, {"compound": "CC(Nc1nc(-c2ccc(F)cc2)cs1)c1nc2cc(C(F)(F)F)ccc2n1CCCO", "note": "(stereo not drawn)", "hERG current change (%, negative = inhibition) at 1uM": -11.6}, {"compound": "Cc1ccc(/C=N/NC(=O)CSc2nc3ccccc3n2Cc2ccc(Cl)cc2)o1", "hERG current change (%, negative = inhibition) at 1uM": -1.89}, {"compound": "CC1CCN(C(=O)Oc2ccccc2)CC1", "hERG current change (%, negative = inhibition) at 1uM": 21.8}, {"compound": "CCCCOc1ccccc1NC(=O)CC1Nc2ccccc2NC1=O", "note": "(stereo not drawn)", "hERG current change (%, negative = inhibition) at 1uM": 7}, {"compound": "CCOC(=O)CNc1nc(Oc2ccc(=O)n(C)n2)nc(N(CC)CC)n1", "hERG current change (%, negative = inhibition) at 1uM": 13.6}, {"compound": "CCOC(=O)C1=C(c2ccccc2)NC(SCC)=C(C#N)C1c1cccnc1", "note": "(stereo not drawn)", "hERG current change (%, negative = inhibition) at 1uM": 6.14}, {"compound": "CC(C)(C)NC(=O)c1ccc2nccnc2c1", "hERG current change (%, negative = inhibition) at 1uM": 14.1}, {"compound": "Cc1cccc(NCc2n[nH]c(=S)n2-c2ccccc2)c1", "hERG current change (%, negative = inhibition) at 1uM": 11.6}, {"compound": "O=C(O)C1Nc2c(C(F)(F)F)ccc(Cl)c2C2C=CCC12", "note": "(stereo not drawn)", "hERG current change (%, negative = inhibition) at 1uM": 15.4}, {"compound": "O=C(NNC(=O)C1CCN(S(=O)(=O)c2c(Cl)cccc2Cl)CC1)c1ccccc1O", "hERG current change (%, negative = inhibition) at 1uM": 4.4}, {"compound": "C=CCN=C1SCC(=O)N1S(=O)(=O)c1ccc(C)cc1", "hERG current change (%, negative = inhibition) at 1uM": 5.48}, {"compound": "O=C(COC(=O)c1ccc(Cl)nc1)Nc1cccc(S(=O)(=O)N2CCCCC2)c1", "hERG current change (%, negative = inhibition) at 1uM": -2.55}, {"compound": "O=C(c1ccco1)N1CCN(c2ccc(F)cc2)CC1", "hERG current change (%, negative = inhibition) at 1uM": 5.88}, {"compound": "Cc1csc2ncc(C(=O)Nc3ccc4c(c3)OCCO4)c(=O)n12", "hERG current change (%, negative = inhibition) at 1uM": 12.2}]}]}
